{"source": "PubChem BioAssay AID1346378", "about": "(National Center for Advancing Translational Sciences (NCATS), 2018)", "note": "Among all 420,000 compounds or so, about 540 (0.13%) were called active. This list was built around the results that the source calls inconclusive (neither active nor inactive); the mix of calls is not that of the screen. Cut-off read from the data, not from the text of the source: active = activity change below about -50%; inconclusive = mostly about -30% to -49%; inactive = weaker than that."}
{"target": "Phosphatidylinositol 4-kinase type 2-alpha (Homo sapiens) (UniProt Q9BTU6)", "sequence (Q9BTU6 whole entry, looked up)": "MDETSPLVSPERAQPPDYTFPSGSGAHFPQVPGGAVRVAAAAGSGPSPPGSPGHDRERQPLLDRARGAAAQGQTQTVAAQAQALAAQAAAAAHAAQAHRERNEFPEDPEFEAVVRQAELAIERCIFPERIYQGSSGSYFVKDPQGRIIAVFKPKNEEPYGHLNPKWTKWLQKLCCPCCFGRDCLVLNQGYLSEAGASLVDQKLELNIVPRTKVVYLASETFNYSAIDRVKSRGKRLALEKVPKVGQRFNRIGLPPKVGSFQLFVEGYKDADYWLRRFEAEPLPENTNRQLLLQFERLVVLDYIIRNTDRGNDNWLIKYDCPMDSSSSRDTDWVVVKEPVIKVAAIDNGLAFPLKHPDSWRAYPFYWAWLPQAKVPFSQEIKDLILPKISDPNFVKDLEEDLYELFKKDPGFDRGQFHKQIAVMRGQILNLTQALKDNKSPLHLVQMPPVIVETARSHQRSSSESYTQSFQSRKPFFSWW", "experiment": "qHTS for small molecular inhibitors of PI4K2A;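 note: -100% = wells without enzyme as full effect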", "conditions": "purified PI4K2A, ADP-Glo luminescence, 1 h; at 76.9 µM, hits give low values", "outline": "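In this quantitative HTS, ADP production by PI4K2A was quantified luminescently after 1 h at ambient temperature; 100 microM adenosine served as plate-quality control.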"}
{"smiles": "Cc1[nH][nH]c(=O)c1C(c1c(C)[nH][nH]c1=O)c1cn(Cc2ccccc2Cl)c2ccccc12", "activity change, negative = inhibition": "inconclusive: -34.5%"}
{"smiles": "CCOc1ccccc1CN1CCN(Cc2ccc3cccc(OC)c3n2)CC1CCO", "note": "(configuration not stated)", "activity change, negative = inhibition": "inactive: 2.66%"}
{"smiles": "CC(=O)Oc1ccc(C(=O)Nc2cccc(C(=O)c3cccc(NC(=O)c4ccc(OC(C)=O)cc4)c3)c2)cc1", "activity change, negative = inhibition": "inconclusive: -36.4%"}
{"smiles": "NC[C@H](O)c1ccc(O)c(O)c1", "activity change, negative = inhibition": "inconclusive: -48.4%"}
{"smiles": "O=S(=O)(O)c1cc(O)c(N=Nc2ccc(O)cc2O)c2ccccc12", "activity change, negative = inhibition": "inconclusive: -40.2%"}
{"smiles": "C[C@H]1CCC/C=C/C(=O)c2c(cc(O)c(Cl)c2O)CC(=O)O1", "activity change, negative = inhibition": "inactive: -27.8%"}
{"smiles": "C[C@@H]1[C@H](O)[C@@H](C)/C=C/C=C/C=C/C=C/C=C/C=C/C=C/[C@H](OC2O[C@H](C)[C@@H](O)[C@H](N)[C@@H]2O)C[C@@H]2O[C@](O)(C[C@@H](O)C[C@@H](O)[C@H](O)CC[C@@H](O)C[C@@H](O)CC(=O)O[C@H]1C)C[C@H](O)[C@H]2C(=O)O", "note": "(some centres not stated)", "activity change, negative = inhibition": "inconclusive: -43.9%"}
{"smiles": "Cc1ccc2c(c1)-c1c(cnn1CC(=O)N1CCCN(Cc3ccccc3F)C1)CO2", "activity change, negative = inhibition": "inconclusive: -44.1%"}
{"smiles": "Cc1cc(-c2csc(NC(=O)c3cc4ccccc4o3)n2)c(C)n1C", "activity change, negative = inhibition": "inconclusive: -35.2%"}
{"smiles": "O=C(CCSCCC(=O)NCc1ccco1)NCc1ccco1", "activity change, negative = inhibition": "inconclusive: -32.7%"}
{"smiles": "COC(=O)Cc1c(C)[nH]n(-c2cc(Cl)cc(Cl)c2)c1=O", "activity change, negative = inhibition": "inconclusive: -39.2%"}
{"smiles": "Cc1ccccc1Cn1nc(C)c(NC(=O)c2cc(-c3cccs3)on2)c1C", "activity change, negative = inhibition": "inconclusive: -45.1%"}
{"smiles": "CCCCN(C)C(=O)c1cc2cc3ccc(OC)cc3nc2s1", "activity change, negative = inhibition": "active: -55.3%"}
{"smiles": "O=C1C(=Cc2ccco2)CCC1=Cc1ccco1", "activity change, negative = inhibition": "active: -59.1%"}
{"smiles": "O=c1oc2cc(O)ccc2cc1-c1ccc(F)cc1", "activity change, negative = inhibition": "inconclusive: -37.2%"}
{"smiles": "O=C(NC1CC1)c1cc(-c2ccco2)nc2ccccc12", "activity change, negative = inhibition": "inconclusive: -30.6%"}
{"smiles": "O=C(O)c1c2c(nc3ccc(S(=O)(=O)N4CCC(C(=O)NCc5ccccc5)CC4)cc13)CCCC2", "activity change, negative = inhibition": "inactive: -6.39%"}
{"smiles": "N#Cc1c(N)n(C2OC(CO)C(O)C2O)c2ncnc(N)c12", "note": "(configuration not stated)", "activity change, negative = inhibition": "active: -61.7%"}
{"smiles": "Nc1cc(C(=O)O)c(N)c2c1C(=O)c1ccccc1C2=O", "activity change, negative = inhibition": "active: -54.7%"}
{"smiles": "N#Cc1c(N(CCO)CCO)nc(N)c2c(N)nc3c(c12)CC(=O)N3Cc1cccs1", "activity change, negative = inhibition": "inconclusive: -36.2%"}
{"smiles": "NNC(=O)c1oc2nc(-c3ccco3)cc(-c3ccco3)c2c1N", "activity change, negative = inhibition": "active: -57.1%"}
{"smiles": "CCOC(=O)c1cccc(NC(=O)c2ccc3snnc3c2)c1", "activity change, negative = inhibition": "inconclusive: -30.2%"}
